In article PMC9409320 one finds binding data, which are given here for three substances.

Amino acid sequences for entries named in this document (tags omitted). A change or cut given only in a name is not applied to a line headed by its entry.
UniProt P17742: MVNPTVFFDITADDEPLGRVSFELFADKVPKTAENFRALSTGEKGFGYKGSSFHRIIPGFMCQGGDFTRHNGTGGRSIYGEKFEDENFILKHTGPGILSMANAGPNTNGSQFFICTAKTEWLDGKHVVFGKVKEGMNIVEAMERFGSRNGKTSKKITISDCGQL
UniProt Q08775: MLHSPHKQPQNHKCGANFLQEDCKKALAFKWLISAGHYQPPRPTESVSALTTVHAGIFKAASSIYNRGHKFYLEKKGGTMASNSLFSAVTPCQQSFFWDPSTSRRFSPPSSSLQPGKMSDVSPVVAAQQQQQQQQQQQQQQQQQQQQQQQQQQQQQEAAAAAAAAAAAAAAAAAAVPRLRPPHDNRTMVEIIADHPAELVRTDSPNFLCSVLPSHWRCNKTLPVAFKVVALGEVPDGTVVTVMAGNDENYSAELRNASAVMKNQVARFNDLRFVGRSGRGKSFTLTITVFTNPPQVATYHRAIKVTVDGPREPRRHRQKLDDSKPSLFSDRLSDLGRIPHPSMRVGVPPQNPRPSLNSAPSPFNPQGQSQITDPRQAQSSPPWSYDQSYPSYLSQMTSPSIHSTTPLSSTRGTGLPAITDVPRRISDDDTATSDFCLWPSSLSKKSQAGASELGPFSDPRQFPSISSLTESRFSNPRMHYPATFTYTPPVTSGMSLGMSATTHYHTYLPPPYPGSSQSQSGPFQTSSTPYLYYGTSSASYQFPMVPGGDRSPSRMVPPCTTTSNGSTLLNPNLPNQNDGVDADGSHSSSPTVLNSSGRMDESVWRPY
UniProt Q8VI67: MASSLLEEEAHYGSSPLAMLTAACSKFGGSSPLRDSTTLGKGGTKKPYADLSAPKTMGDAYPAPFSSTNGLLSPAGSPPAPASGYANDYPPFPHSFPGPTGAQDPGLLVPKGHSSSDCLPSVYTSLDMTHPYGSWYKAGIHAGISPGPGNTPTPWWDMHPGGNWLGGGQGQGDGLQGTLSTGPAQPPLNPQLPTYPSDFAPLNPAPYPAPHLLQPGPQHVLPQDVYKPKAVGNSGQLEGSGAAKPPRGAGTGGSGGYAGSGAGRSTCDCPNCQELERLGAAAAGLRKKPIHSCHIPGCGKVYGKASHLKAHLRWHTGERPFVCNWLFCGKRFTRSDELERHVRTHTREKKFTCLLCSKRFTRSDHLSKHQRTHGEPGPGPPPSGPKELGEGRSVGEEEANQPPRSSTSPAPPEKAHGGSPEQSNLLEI

Results are given in words; binding and its absence hold for the method and conditions named. Binding seen in cells or lysates may run through a third protein. Some entries that bind do so weakly or less than the wild type.

One assay concerns the target HA-tagged Cyclophilin A (UniProt P17742). As to the kind of experiment: co-IP; HEK293 cells co-transfected with HA-CypA and Myc-tagged Runx2 deletion mutants; immunoprecipitation with HA antibodies, immunoblot with HA or Myc antibodies. For orientation: Immunoblotting shows a protein as a band on a membrane.
A further assay has as its target GST-CypA (UniProt P17742). As to the kind of experiment: pull-down; GST-CypA on glutathione Sepharose beads incubated with total cell lysates for 4 h at 4 °C; washed with RB buffer (20 mM HEPES pH 7.4, 120 mM NaCl, 10% glycerol, 2 mM EDTA); immunoblot; only the target purified.
The next assay addresses Myc-tagged Runx2 (UniProt Q08775). As to the kind of experiment: co-IP; HEK293 cells co-transfected with HA-CypA and Myc-tagged transcription factor; immunoprecipitation with Myc antibody, immunoblot with HA or Myc antibody; lysis in 25 mM HEPES pH 7.4, 150 mM NaCl, 1% NP-40, 0.25% sodium deoxycholate.
The next assay concerns the target Osterix (UniProt Q8VI67). The assay is described as above.

“Myc-tagged Runx2 deletion mutant, Runt domain (from UniProt Q08775 187-315) (domain or fragment)”: the binding result with HA-tagged Cyclophilin A and in the assay with GST-CypA was “binds” in each case.

With “HA-tagged Cyclophilin A (from UniProt P17742 1-164)”, the binding result with Myc-tagged Runx2 is listed as “binds”; in the assay with Osterix, “no binding”.

Consider “Myc-tagged Runx2 (from UniProt Q08775 1-607)”, for which the binding result with GST-CypA is listed as “binds”.
